The values that follow come from patent US20250230125A1 (The Board of Regents of The University of Texas System, priority 2022, published 2025).

SMILES strings stand for the structures.

The conditions of series [1]: po; prior report; cited from earlier work.
In series [2] the target is human ether-a-go-go-related gene (hERG) potassium channel (Homo sapiens, UniProt Q12809). Nature of the series: NIMH PDSP radioligand binding displacement, HERG.
human ether-a-go-go-related gene (hERG) potassium channel, sequence (Q12809 whole entry): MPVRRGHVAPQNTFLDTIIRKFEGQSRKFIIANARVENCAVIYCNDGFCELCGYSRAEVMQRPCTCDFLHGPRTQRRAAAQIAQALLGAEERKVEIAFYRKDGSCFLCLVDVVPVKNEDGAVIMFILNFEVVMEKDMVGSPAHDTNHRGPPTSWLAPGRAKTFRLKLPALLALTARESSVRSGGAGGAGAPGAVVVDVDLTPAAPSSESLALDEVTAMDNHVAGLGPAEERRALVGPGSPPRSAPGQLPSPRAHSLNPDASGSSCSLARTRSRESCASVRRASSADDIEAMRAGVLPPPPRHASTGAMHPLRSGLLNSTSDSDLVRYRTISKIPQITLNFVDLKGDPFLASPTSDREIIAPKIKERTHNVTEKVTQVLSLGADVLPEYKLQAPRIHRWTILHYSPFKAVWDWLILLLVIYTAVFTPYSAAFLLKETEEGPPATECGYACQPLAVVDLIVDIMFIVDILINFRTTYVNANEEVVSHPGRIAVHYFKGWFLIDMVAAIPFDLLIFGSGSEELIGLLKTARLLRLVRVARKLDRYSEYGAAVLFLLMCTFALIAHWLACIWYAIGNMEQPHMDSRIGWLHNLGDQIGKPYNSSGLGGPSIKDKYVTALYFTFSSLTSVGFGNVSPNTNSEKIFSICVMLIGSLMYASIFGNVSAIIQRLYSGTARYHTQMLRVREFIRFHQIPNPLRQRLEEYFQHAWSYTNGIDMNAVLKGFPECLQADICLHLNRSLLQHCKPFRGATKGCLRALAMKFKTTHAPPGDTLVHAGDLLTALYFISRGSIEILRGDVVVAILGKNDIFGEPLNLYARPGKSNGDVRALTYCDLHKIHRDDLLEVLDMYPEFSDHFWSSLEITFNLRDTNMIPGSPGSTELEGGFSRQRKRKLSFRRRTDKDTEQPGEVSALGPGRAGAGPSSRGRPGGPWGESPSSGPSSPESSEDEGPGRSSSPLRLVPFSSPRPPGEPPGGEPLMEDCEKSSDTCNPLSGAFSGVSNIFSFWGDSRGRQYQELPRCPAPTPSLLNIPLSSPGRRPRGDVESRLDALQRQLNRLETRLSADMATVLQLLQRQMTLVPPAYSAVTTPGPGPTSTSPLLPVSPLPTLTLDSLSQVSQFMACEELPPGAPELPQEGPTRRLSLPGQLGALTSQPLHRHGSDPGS

For `CCCCCCCCCCCC1CCNC(C(=O)NCC(O)CO)C1` (centres unmarked) [Compound 2], the AUC0-inf in series [1] was 737 ± 56 ng·h/mL. Take `CCCCCCCC/C=C\CCCCCCCC(=O)NC(CO)CO` [Compound 11, N-(1,3-Dihydroxypropan-2-yl)oleamide]: the “displacement of binding to hERG potassium channel (in words)” value in series [2] is listed as “did not displace binding”.
